# The full ranking holds about 110,000 compounds; the median of “z-score” is about -0.1, and the highest 2% start at about 2. The list shows a part of the results. The source made the active and inactive calls.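 How the source made its calls: active means z-score in the third read window above 3 or below -3; inactive means the rest.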
# Target: Metabotropic glutamate receptor 8 (Rattus norvegicus) (UniProt P70579)
# Assay: mGluR8 Gi/Go-coupled signaling modulation – cell-based, rat, thallium flux, HTS, primary screen (AID 488969)
# Details: HEK293 rat mGluR8, GIRK (G protein-gated inwardly rectifying potassium channel) thallium flux, FluoZin2; at 10 µM; stronger effect = higher value; submaximal glutamate (EC20) added with thallium
# Sequence of UniProt P70579 (P70579 whole entry, looked up): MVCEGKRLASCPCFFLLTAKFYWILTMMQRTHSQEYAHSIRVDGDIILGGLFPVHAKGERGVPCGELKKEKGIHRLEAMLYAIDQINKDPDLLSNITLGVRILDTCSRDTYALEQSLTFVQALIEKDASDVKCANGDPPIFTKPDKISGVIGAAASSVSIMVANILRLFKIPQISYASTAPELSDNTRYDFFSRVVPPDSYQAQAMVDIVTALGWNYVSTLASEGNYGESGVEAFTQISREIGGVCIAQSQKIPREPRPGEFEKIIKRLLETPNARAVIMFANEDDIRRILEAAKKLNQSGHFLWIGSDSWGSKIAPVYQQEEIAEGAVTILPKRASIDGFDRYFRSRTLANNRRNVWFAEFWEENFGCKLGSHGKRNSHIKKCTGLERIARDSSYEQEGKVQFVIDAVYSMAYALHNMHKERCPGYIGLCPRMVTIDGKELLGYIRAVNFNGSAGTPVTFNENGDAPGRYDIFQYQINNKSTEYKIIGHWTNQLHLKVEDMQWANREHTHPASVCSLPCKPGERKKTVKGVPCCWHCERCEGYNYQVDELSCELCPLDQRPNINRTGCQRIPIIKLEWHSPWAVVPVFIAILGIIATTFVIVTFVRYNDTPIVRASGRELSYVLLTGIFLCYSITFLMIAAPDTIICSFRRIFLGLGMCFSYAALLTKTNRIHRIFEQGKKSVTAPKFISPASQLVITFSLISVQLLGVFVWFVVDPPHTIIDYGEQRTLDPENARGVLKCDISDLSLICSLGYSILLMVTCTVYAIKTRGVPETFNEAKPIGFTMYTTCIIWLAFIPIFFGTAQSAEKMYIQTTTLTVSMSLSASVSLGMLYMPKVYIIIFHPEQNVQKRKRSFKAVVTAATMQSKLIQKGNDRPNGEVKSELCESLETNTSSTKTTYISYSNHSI
row,SMILES,z-score
1,CCCCCC(=O)NC(NC(=S)Nc1ccc(S(N)(=O)=O)cc1)C(Cl)(Cl)Cl (centres undefined),-0.128
2,COC(=O)c1sc2ncccc2c1OCc1ccc(Cl)cc1,-0.0869
3,O=C(NCc1ccccc1)[C@@H]1CSC2c3ccccc3C(=O)N21 (some centres undefined),-0.264
4,Brc1cccc(-c2nnc3sc(CNCc4ccco4)cn23)c1,-0.812
5,CCOC(=O)COn1c(=O)c(-c2ccc(OC)c(OC)c2)[n+]([O-])c2ccccc21,0.69
6,O=C(NCC1CCCO1)C(C(=O)c1ccccc1)n1cc(Cl)ccc1=O (centres undefined),-0.0542
7,CCOC(=O)C(C#N)C(Cc1ccccc1)c1ccco1 (centres undefined),-0.32
8,COc1ccc(-c2cc(-c3ccc(F)cc3)nc(N3CCN(C)CC3)n2)cc1,0.083
9,CCOC(=O)N1CCC(Nc2ncnc3c2cnn3-c2ccc(C)cc2C)CC1,-1.15
10,CCCCNC(=O)CSc1cc(=O)n(C)c2ccccc12,-0.878
11,O=C(O)C1Cc2[nH]cnc2C(c2ccccc2O)N1 (centres undefined),-0.212
12,COc1cc2c(cc1OC)CN(C(=O)CC1CC3CCC1C3)CC2 (centres undefined),-0.444
13,COc1cccc(NC(=O)N2CCC(C(=O)Nc3ccc(C)cc3C)CC2)c1,0.871
14,N#Cc1ccc(C(=O)NCC(c2ccco2)N2CCCC2)cc1 (centres undefined),0.0484
15,COc1ccc(N(CC(=O)Nc2ccc(S(=O)(=O)N3CCCCC3)cc2)S(C)(=O)=O)cc1OC,-0.135
16,CCn1c(SCC(=O)N2CCCCC2)nc(O)cc1=O,-0.258
17,CCn1ccc(C(=O)Nc2ccc(S(=O)(=O)Nc3ccccc3OC)cc2)n1,-0.423
18,Cc1ccc(Cn2ncc(Cl)c(Cl)c2=O)cc1,-0.51
19,CCOc1cccc(C(=O)Nc2ccc3oc(Cc4ccc(Cl)cc4)nc3c2)c1,-0.351
20,COC(=O)C1=C(C)N(Cc2cccnc2)C(=O)C1,-0.233
21,Cc1ccn2cc(CCNC(=O)C3CCCCC3)nc2c1,-0.0264
22,COc1ccc(C(=O)Nc2ccccc2-c2nnn(CC(=O)NCc3ccco3)n2)cc1,0.233
23,CC(=NCc1ccco1)c1c(O)n(C2CCCCC2)c(=O)[nH]c1=O,-0.28

row,SMILES,z-score
1,CCOC(=O)c1sc2ccccc2c1OC(=O)c1ccc(C)cc1,-0.233
2,Cn1c(N)c(C(c2ccccc2)c2c(N)n(C)c(=O)n(C)c2=O)c(=O)n(C)c1=O,-0.545
3,Cc1nn(Cc2ccc([N+](=O)[O-])cc2)c(=O)n1-c1ccc(F)cc1,0.00991
4,CCO/C=C1\C(=O)N(CC)c2ccccc21,-0.427
5,CCOC(=O)Cn1nc(C)n(-c2ccc(C(C)C)cc2)c1=O,0.324
6,CCNc1nc(NCC)n2c(SC(C(=O)Nc3cc(C)ccc3OC)c3ccccc3)nnc2n1 (centres undefined),-0.463
7,O=C(COC(=O)C1(c2ccccc2F)CCCC1)N1CCc2ccccc21,0.313
8,Clc1ccc(-c2n[nH]c3c2CCC3)cc1Cl,-0.286
9,O=C(COC(=O)C1CC(O)CN1S(=O)(=O)c1ccc(Cl)cc1)c1ccccc1 (centres undefined),-0.219
10,C/C(=N\NC(=O)C1CCCN(S(=O)(=O)c2ccccc2)C1)c1cccnc1 (centres undefined),-0.109
11,Cn1cc(Br)c(C(=O)Nc2c(F)c(F)c(F)c(F)c2F)n1,-0.563
12,Cc1ccc(NC(=O)COc2ccc(C(=O)NCCc3ccccc3)cc2)cc1,-0.232
13,CCn1c2ccccc2c2cnc(N=CN(C)C)c(C#N)c21,0.072
14,O=C(NCCCN1CCCC1=O)c1ccccc1NS(=O)(=O)c1ccc(Br)cc1,-0.938
15,COc1cc2c3nnc(-c4ccc(F)cc4)c-3cn(Cc3cccc(C)c3)c2cc1OC,-0.28
16,COc1cccc(Nc2nc(-c3ccc4c(c3)OCCO4)cs2)c1,-0.0336
17,C/C=C/c1ccc(OCCCNCC(C)O)c(OC)c1 (centres undefined),1.74
18,CCCOc1ccc2c(=O)c(N3C(=O)c4ccccc4C3=O)c(C)oc2c1,-0.186
19,CC(C)CCn1c(SCC(=O)N2CC(=O)Nc3ccccc32)nc2scc(-c3cccs3)c2c1=O,-0.0179
20,COC(=O)C1=C(C)NC(C)=C(C(=O)OC)C1c1ccc2ccccc2n1,0.297
21,Nc1[nH]nc2nc(N3CCOCC3)nc(-c3ccccc3)c12,-0.0386
22,S=c1[nH]cc(-c2ccccc2)n1-c1cccc(Cl)c1,2.94
23,Cc1nn(-c2ccccc2)c(N)c1C(c1ccc(C(C)C)cc1)c1c(C)nn(-c2ccccc2)c1N,0.356

row,SMILES,z-score
1,CCN(CC)S(=O)(=O)c1ccc(NC(=O)c2cccc3c2C(=O)N(CCOC)C3)cc1,-0.302
2,CCCn1cc2c(c1-c1cccc(C)c1)c(=O)n(C)c(=O)n2C,-0.197
3,CCCc1nc(Nc2nc3ccccc3o2)nc(C)c1C(=O)OCC,0.35
4,CC1=C(C)CC(C(=O)NCCc2ccccc2)C(C(=O)O)C1 (centres undefined),-0.101
5,CC(=O)c1cccc(NC(=O)Cn2cc3c(n2)CCCC3)c1,-0.279
6,S=c1[nH]nc(-c2ccc3ccccc3n2)o1,-0.153
7,Cc1ccc(-c2cc(C(=O)N/N=C/C=C/c3ccccc3)n[nH]2)o1,0.977
8,COc1cc(C(=S)N2CCCC2)cc(OC)c1OS(=O)(=O)c1ccc(NC(C)=O)cc1,active: -3.19
9,C/C(=N\OC(=O)c1ccc(C)cc1)c1sc(C)nc1C,-0.547
10,CCCOc1ccc(Cc2c(Cl)nc(SC)nc2N(C)C)cc1,-0.168
11,CC(=O)c1cnc(SCCN2C(=O)c3ccccc3C2=O)nc1C,0.192
12,Cc1cc(C#N)c(C)c(SCc2[nH]nc3c2C(c2ccccc2)C(C#N)=C(N)O3)n1 (centres undefined),-0.00817
13,O=C(C1CCCO1)N1CCN(C(=S)Nc2ccc(Cl)cc2Cl)CC1 (centres undefined),-0.271
14,CCCCOC(=O)/C(=C\c1ccc([N+](=O)[O-])o1)NC(=O)c1ccccc1,-0.382
15,Cc1ccc(S(=O)(=O)c2ccc(Oc3ccccc3)cc2)cc1,-0.194
16,CC(C)CC(c1nnnn1CC1CCCO1)N1CCN(Cc2ccc3c(c2)OCO3)CC1 (centres undefined),-0.0948
17,Cc1c(C(=O)NCCSc2ccc(Cl)cc2)cccc1[N+](=O)[O-],-0.226
18,O=C(CSc1nnnn1-c1ccccc1)Nc1ncc2c(n1)CC(c1ccco1)CC2=O (centres undefined),-0.485
19,Nc1nnc(SCC(=O)NC23CC4CC(CC(C4)C2)C3)s1,-0.0347
20,COc1ccc(CC(=O)Nc2cc(C)on2)cc1,-0.231
21,O=c1cc(O)nc(SCc2ccccc2)n1-c1ccc(F)cc1,-0.305
22,CCn1c(-c2ccc(Cl)cc2)n[nH]c1=S,0.134
23,CN(CC(=O)NCCc1ccc(Cl)cc1)S(=O)(=O)c1ccc2c(c1)c(=O)n(C)c(=O)n2C,0.137
